Experimental findings from the supplement of paper PMC10185492 are described below.

Some of the results follow. Read counts after selection give these values, which scatter widely. A value given as a limit tells only on which side of the number the result lay.

This assay concerns SARS-CoV-2 3CLpro (nsp5). Kind of assay: substrate phage enrichment score (protease-eluted vs HEPES control, +1 offset) (ratio); higher = better cleaved substrate. The conditions noted are these: selection round: 4; protease elution time: 15 min. The method, then: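 Random heptapeptide substrate phage display (M13 pIII fusion, heptapeptide between an N-terminal biotinylated AviTag GLNDIFEAQKIEWHE and pIII; phages immobilised on streptavidin) eluted by cleavage with 50 nM protease in 20 mM HEPES at 37 °C. Selected phages were NGS sequenced, and the enrichment score is (reads in protease sample + 1)/(reads in HEPES blank-selection control + 1).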
Regarding QNTEAAH, the “substrate phage enrichment score” value was 0.136.
Regarding TACLQGR, the “substrate phage enrichment score” value was 14.7.
With CDAAHHH, the “substrate phage enrichment score” value was 0.704.
As for HDGCSPT, the figure is 0.947.
For the substance GRPLHGQ, the “substrate phage enrichment score” value is > 52.
Consider CIHRGGT, for which the “substrate phage enrichment score” value came out at 0.812.
To RHNIRAG belongs 0.12.
Turning to RSQCALH, the “substrate phage enrichment score” value was found to be 20.5.
To ICVEVQR belongs 2.29.
As for AHWKGMN, the figure is 2.14.
With SRTRLQG, the “substrate phage enrichment score” value stood at 301.
As for CTDTLSR, the “substrate phage enrichment score” value was > 202.
Turning to KPNQSHQ, the “substrate phage enrichment score” value was > 50.
To THSTVLS belongs > 23.
CKLRKPV: the “substrate phage enrichment score” value was found to be 2.
Turning to SNPNHMI, the “substrate phage enrichment score” value stood at 3.39.
On to VKAQSPR, for which the “substrate phage enrichment score” value was determined as 1.56.
For HQLASPK, the “substrate phage enrichment score” value is 0.519.
To ACPGYFE belongs 0.8; to SSTAHHH, 1.09.
With RRTELDR, the “substrate phage enrichment score” value was > 31.
Consider SSVPWEN, for which the “substrate phage enrichment score” value is > 23.
For SDYVRPR, the “substrate phage enrichment score” value is 1.18.
As for KAAHIPR, the “substrate phage enrichment score” value was 17.7.
To RDFGGTN belongs 8; to QSMQIRA, > 28; to TPPNSLR, 0.914.
As for ACQGNWR, the “substrate phage enrichment score” value stood at 1.31.
In the case of IQCVVKP, the “substrate phage enrichment score” value came to 0.261.
Turning to ITDWHRT, the “substrate phage enrichment score” value came to 1.38.
As to SGSLDNH, the “substrate phage enrichment score” value is 0.769.
For CAAAHHK, the “substrate phage enrichment score” value was found to be 1.27.
With LDFQGGS, the “substrate phage enrichment score” value was 1.13.
With CTQWPRS, the “substrate phage enrichment score” value was 0.474.
Regarding KWTNLPR, the “substrate phage enrichment score” value is > 24.
TQMSTTS: the “substrate phage enrichment score” value was > 35.
As for QGGVIFS, the figure is > 21; as for YAGMDTA, > 22.
Consider NHGRAPR, for which the “substrate phage enrichment score” value is > 31.
To RHHTQTP belongs 0.875.
For AQKVPLV, the “substrate phage enrichment score” value is > 36.
As to APNTLKV, the “substrate phage enrichment score” value was 0.0952.
As to EVRQPKD, the “substrate phage enrichment score” value was 7.33.
To PGDQMKS belongs 0.143.
Take ETFHASG: the “substrate phage enrichment score” value was found to be 2.38.
With NPNEDAT, the “substrate phage enrichment score” value is > 21.
For LRNPRQQ, the “substrate phage enrichment score” value is 0.667.
On to NPRCQHP, for which the “substrate phage enrichment score” value was > 72.
In the case of QCVRSSN, the “substrate phage enrichment score” value was > 29.
Regarding GGSYIMH, the “substrate phage enrichment score” value was found to be 1.55.
As to SASSSFR, the “substrate phage enrichment score” value was > 21.
For RDQPPAK, the “substrate phage enrichment score” value turned out to be 5.83.
With GHWGERP, the “substrate phage enrichment score” value was 0.933.
With GHNAVHN, the “substrate phage enrichment score” value was > 31.
Take NTLGVPS: the “substrate phage enrichment score” value was found to be 0.3.
Take QHRYTQV: the “substrate phage enrichment score” value is > 33.
Regarding KSSPAAH, the “substrate phage enrichment score” value worked out at 0.682.
ELNIQGG: the “substrate phage enrichment score” value is > 40.
As for NHYDMTS, the “substrate phage enrichment score” value was determined as 1.15.
For YGEVTLQ, the “substrate phage enrichment score” value amounted to 612.
For the substance KKQTLLQ, the “substrate phage enrichment score” value was > 246.
As to MGSAAHH, the “substrate phage enrichment score” value turned out to be 4.57.
To QNFQGGS belongs 0.842.
For the substance FPSQCEQ, the “substrate phage enrichment score” value is > 21.
As for EAWSPPA, the “substrate phage enrichment score” value was > 32.
Take CQYIIKP: the “substrate phage enrichment score” value is 2.83.
As to TKFLTNG, the “substrate phage enrichment score” value was > 77.
With SGRSTLQ, the “substrate phage enrichment score” value was > 21.
As for KTGKEIP, the figure is 6.67; as for ITPTRLQ, > 84.
AKLQSQW: the “substrate phage enrichment score” value is > 73.
Take SVGAALQ: the “substrate phage enrichment score” value is > 55.
As for PWSTGMQ, the figure is 0.208.
Turning to SSCGYRA, the “substrate phage enrichment score” value is > 29.
To APTPHTP belongs > 36; to SQSCRQH, 12.
To RDCIREA belongs 0.667; to GPYGILY, > 80; to RCRTAET, > 37.
For the substance LKPVQTR, the “substrate phage enrichment score” value is 3.67.
HPLKTDM: the “substrate phage enrichment score” value amounted to 1.5.
For the substance VTRESGA, the “substrate phage enrichment score” value was found to be 10.5.
To NRRHCAR belongs > 219.
To SAAGHHH belongs 2.14.
In the case of STSKPLL, the “substrate phage enrichment score” value amounted to 0.714.
Consider KPQGGSA, for which the “substrate phage enrichment score” value was 0.0833.
As to GDAPRGA, the “substrate phage enrichment score” value is > 27.
To AVSAKLQ belongs > 27; to AGVPTVQ, 22; to TPAHHHH, 0.478.
Consider EHNSCLQ, for which the “substrate phage enrichment score” value turned out to be 19.3.
As to RQSTSPK, the “substrate phage enrichment score” value came out at 1.79.
Take INRSSMV: the “substrate phage enrichment score” value worked out at 14.8.
As for TAVTEGT, the figure is 0.6.
On to KRDTLTM, for which the “substrate phage enrichment score” value was > 37.
On to WSEGTEG, for which the “substrate phage enrichment score” value amounted to 6.29.
In the case of TSGGVDA, the “substrate phage enrichment score” value was 3.33.
For the substance CIGHNTR, the “substrate phage enrichment score” value stood at 0.103.
Consider SGPRSSY, for which the “substrate phage enrichment score” value is 1.36.
For the substance SEAAHHH, the “substrate phage enrichment score” value came out at 0.755.
